Experimental data taken from publication PMC12136788.
Some of the results follow.

T1: UNK ZnF1-3 (human, UniProt Q9C0B0 31-174)
T1 sequence: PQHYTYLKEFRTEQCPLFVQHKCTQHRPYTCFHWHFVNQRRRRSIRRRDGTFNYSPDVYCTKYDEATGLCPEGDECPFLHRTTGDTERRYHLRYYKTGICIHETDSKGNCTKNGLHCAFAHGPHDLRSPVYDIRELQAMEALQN

B1: chr11:94609001:94609002:+_ENSG00000166025_ENST00000433060|hu_hu|FALSE|FALSE (ssRNA)
RNA: GGGAGUUCUACAGUCCGACGAUCAGAGAUGUGAACACAUAGGAGGCAUGGCAAGAGAAUUGAUUUUUAAAAAUCUGUGUGCUAAUGAGGAUGAUCCCCCCUUGAAGUGGACACUUUGAGAGGCUCUGAGGCCAAAGACUCAUUCAACAGAGGAUUGAGCAUCA
B2: chr3:179287964:179287965:+_ENSG00000136518_ENST00000429709|hu_hu|hu_hu_hu_mus_True|58_108 (ssRNA)
RNA: GGGAGUUCUACAGUCCGACGAUCCUUUAGAGGUGAAAUGGCCUCCAUGUUCUCCCUGGGCACGCGGAGGGCAUUGGUAUCUAUGUAGUAGGUGGGCCCGCCCUGCUUGCCUUUGUCACCAUCAAUCUCCAUCAUUGUACUUCCCAACAGAGGAUUGAGCAUCA
B3: chr1:172123744:172123745:-_ENSMUSG00000026667_ENSMUST00000150821|mus_mus|motif|central (ssRNA)
RNA: GGGAGUUCUACAGUCCGACGAUCCAGCUCGCUGAAACACAGUGCUCACACUUUAUAGGGAGGUGGAAAUAAAGUCCUCUGCGGUUCAGCAAGAAAAUAGACAUCUGAAAGACUGAUAAUGAAAAAAGAACAUCUUGGUACUAACAACAGAGGAUUGAGCAUCA
B4: chr3:110853029:110853030:+_ENSG00000177707_ENST00000485303|hu_hu|FALSE|FALSE (ssRNA)
RNA: GGGAGUUCUACAGUCCGACGAUCUGGUUGCUAAACAUACCACUCCCUCCUGGAAAUUACGGAACCAUCUACAUGUGAAACUAAGUCAUCUUCGUUUUCAUCAUAAUGUUCAUCACUGACAAACUUCAUUCCCAUUUUUAGAUCCAACAGAGGAUUGAGCAUCA
B5: chr8:95500983:95500984:-_ENSG00000164944_ENST00000437199|hu_hu|hu_hu_hu_mus_True|8_108 (ssRNA)
RNA: GGGAGUUCUACAGUCCGACGAUCAGAAGGAUUUUUACGAGUAAAGGACCGUACAUGACGGCCUCUACCACUGCCUCCACUAACAAACUUUCCUCUCGAGCCUCCACUGCCGCUAUUUGUACUAGCCCCAGGAAGGUCCAGGCCCAACAGAGGAUUGAGCAUCA
B6: 100488932_100489052_434_3pUTR_ENSMUSG00000008763_ENSMUST00000008907|mouse|control|control (ssRNA)
RNA: GGGAGUUCUACAGUCCGACGAUCAUUAUUAUUAUUAUUUACGAGGCCACCUCUUUCACGCUCUCCGAUUACAUCCAGAAGCCCGGGUGACCUCCCAAGCGAUCGUUGGUUUCUGUCCCGUCAGAUCUUCUCGCCAUUUGGCUCCAACAGAGGAUUGAGCAUCA
B7: 10575863_10575983_2175_3pUTR_ENSMUSG00000024668_ENSMUST00000025570|mouse|control|control (ssRNA)
RNA: GGGAGUUCUACAGUCCGACGAUCAAUAGAGCAAAGGCUUGGACUCAUAACCACCAUGCUACACUGUACACCAUGCUACCCUGCAUCUUCUUACCAGAGCUACAGUGGGGCCUGGGGGAUUCUGGGUGGAUCCUCACUUUGGGACAACAGAGGAUUGAGCAUCA
B8: chr7:108213676:108213677:+_ENSG00000128590_ENST00000249356|hu_mus|motif|central (ssRNA)
RNA: GGGAGUUCUACAGUCCGACGAUCUCCAUGAAAUCUAUUUUCAGUCUGUACUGUGUGUCGAUUGGUGGUAUCAAAGCCACGGAAAGAAAACAUUUUCUCCAUGUCUUCAAACAUAUCAUCAAACAAUCCGCCUCCAAAAGAAAACAACAGAGGAUUGAGCAUCA
B9: chrX:71549762:71549763:+_ENSMUSG00000019087_ENSMUST00000019231|mus_mus|mus_mus_mus_hu_False|18_98 (ssRNA)
RNA: GGGAGUUCUACAGUCCGACGAUCAAACCCGUGUACUCACUCUUAACAGCACAACAUCACCAGAAAACGAUAACGACAGCCAAGCAGGACAGACAGUUAAGUAGUACUUCCACACUCCGCAAAUUCAGGAGCCCUAUAACCUUACAACAGAGGAUUGAGCAUCA
B10: 127824504_127824753_2221_3pUTR_ENSMUSG00000014498_ENSMUST00000014642|mouse|control|control (ssRNA)
RNA: GGGAGUUCUACAGUCCGACGAUCUGGAGGGCAGUGCGGCCCCGGAGGUCAGCAGCAUCAGCCGUGGAUCCCUUCUCUAGCAGCAGAUGUACACAGUCCACAUGGCCAUUCAUAAUGGCCAGCAUCAGUGGGGUUUGUCCAUAGCAACAGAGGAUUGAGCAUCA
B11: chr12:74934348:74934349:+_ENSG00000253719_ENST00000519948|hu_hu|motif|central (ssRNA)
RNA: GGGAGUUCUACAGUCCGACGAUCUUAUUUUAGCUCUUGCCAAGGUUUGAUUUUUUUUAAGUUAAUGCAAUUCUUUAAGACGGAUCUGUAACUAGGCCCCAAGCCUGAUCAGGACAACUCUAGGACAAGGCAGUAACAGUUCCACAACAGAGGAUUGAGCAUCA
B12: chr8:98817645:98817646:+_ENSG00000104341_ENST00000445593|hu_mus|FALSE|FALSE (ssRNA)
RNA: GGGAGUUCUACAGUCCGACGAUCAAUGCACAUGUUGGCAUCAUCCAUGAACUCAAACUCCCCUCCUAGUUCAGAGCCUGAAAAGUGAUACUGAUUGGGAUCUGCCAGGGCACUCAGCAGGAUCAGCAGGACCACAGCAUUGAUCAACAGAGGAUUGAGCAUCA
B13: chr2:202488911:202488912:-_ENSG00000155755_ENST00000286196|hu_mus|hu_hu_hu_mus_False|28_88 (ssRNA)
RNA: GGGAGUUCUACAGUCCGACGAUCAUUGAAACAUUUUUCAUAAUCUCAGAGAUGUUUUCAGCAUUAUGUAACAAAAGCUCAAUUGUAAAUACAUGUAUCUUAUAAAAAUAAAAAUACAAACACGAGUGGGGAGCGCAGGCGCCACAACAGAGGAUUGAGCAUCA
B14: chr1:225977404:225977405:+_ENSG00000143742_ENST00000304786|hu_hu|FALSE|FALSE (ssRNA)
RNA: GGGAGUUCUACAGUCCGACGAUCAAUACAUGGAUCUGACAAAAUGGUUACAUUUAAUGUUCUUUUAAAGAAAGAUGAACUAAAUUUAAGAAGAAUUGGUUUUUCCUAAUAUCUCAUUUUCAAAUUACUGAUACAAAUUUGCCACAACAGAGGAUUGAGCAUCA

molecular target: T1, UNK ZnF1-3; assay: nsRBNS (natural sequence RNA bind-n-seq); RBNS binding buffer (assumed for nsRBNS): 25 mM Tris pH 7.5, 150 mM KCl, 3 mM MgCl2, 0.01% Triton X-100, 500 ug/ml BSA, 20 U/ml SUPERase-In, 4 C; UNK is unkempt and MSI1 is Musashi-1; names of the RNAs are library labels; protein concentration not given here; high values mean tight binding

First: B1
Second: B2
The binding signal of the first is higher: 2.4 enrichment R for the first, 0.766 enrichment R for the second.

First: B3
Second: B4
The binding signal of the first is higher: 1.77 enrichment R for the first, 0.781 enrichment R for the second.

First: B5
Second: B6
The binding signal of the first is higher: 0.973 enrichment R for the first, 0.322 enrichment R for the second.

Compared with B7, B8 is lower in binding signal: 1.5 enrichment R for the first, 0.743 enrichment R for the second.

Going from B9 to B10, the binding signal falls from 1.77 enrichment R to 1.75 enrichment R.

Going from B11 to B12, the binding signal rises from 0.895 enrichment R to 1.29 enrichment R.

Going from B13 to B14, the binding signal falls from 0.833 enrichment R to 0.69 enrichment R.
